In PMC6919601, “Identification of Plasmodium dipeptidyl aminopeptidase allosteric inhibitors by high throughput screening” (PLoS ONE, 2019):
About 230 (0.21%) of roughly 110,000 compounds showed an effect of 50% or more. This is one part of the list.

These molecules were tested against DPAP1 (Plasmodium falciparum, UniProt Q8IIJ9) (assay: primary screen, percent inhibition; read by cleavage of a fluorogenic dipeptide substrate; higher = more effect of the substance).
Parameters: species or system P. falciparum D10 trophozoite lysates; single well
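Note: 30 min substrate incubation versus DMSO and 10 µM JCP410 controls.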

DPAP1, sequence (Q8IIJ9 whole entry, looked up): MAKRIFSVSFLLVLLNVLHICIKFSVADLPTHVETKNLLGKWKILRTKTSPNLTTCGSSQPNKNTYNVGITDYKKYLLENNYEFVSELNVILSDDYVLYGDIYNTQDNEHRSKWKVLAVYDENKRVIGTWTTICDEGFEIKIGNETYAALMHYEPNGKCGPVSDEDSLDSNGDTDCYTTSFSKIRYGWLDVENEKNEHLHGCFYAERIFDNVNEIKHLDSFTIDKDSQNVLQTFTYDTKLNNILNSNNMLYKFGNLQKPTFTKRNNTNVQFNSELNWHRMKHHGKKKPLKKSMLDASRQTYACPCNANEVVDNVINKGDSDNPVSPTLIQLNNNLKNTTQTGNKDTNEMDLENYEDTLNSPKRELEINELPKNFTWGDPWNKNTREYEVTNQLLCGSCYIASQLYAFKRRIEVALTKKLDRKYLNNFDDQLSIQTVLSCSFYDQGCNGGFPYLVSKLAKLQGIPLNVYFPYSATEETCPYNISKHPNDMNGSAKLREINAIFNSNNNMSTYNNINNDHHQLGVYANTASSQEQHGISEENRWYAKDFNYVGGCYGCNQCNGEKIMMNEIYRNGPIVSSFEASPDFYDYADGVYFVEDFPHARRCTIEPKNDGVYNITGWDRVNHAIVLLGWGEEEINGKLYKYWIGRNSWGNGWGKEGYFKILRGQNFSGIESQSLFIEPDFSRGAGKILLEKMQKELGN

SMILES | % Inhibition @ 10 uM
CC(C)N(C(=O)Cn1cc(SCC(N)=O)c2ccccc21)C(C)C | -1.11%
COc1ccc(Br)cc1C1CC(=O)N2CN(C)CSC2=C1C#N (stereo not drawn) | 58.8%
Cc1ccc2nc3c(cc(C(=O)NCc4ccccc4)c(=N)n3CC3CCCO3)c(=O)n2c1 (stereo not drawn) | -1.47%
N/C(=C\C(=O)c1cccs1)C(F)(F)F | 4.38%
COc1ccc(OC2CCN(S(=O)(=O)c3ccc(OC)c(OC)c3)CC2)cc1 | -6.56%
CN(C)CCCN(C(=O)c1ccccc1)c1nc2ccc(F)cc2s1 | -4.61%
Cc1ccccc1-c1noc(CCC(=O)NC(C)(C)C)n1 | -3.12%
COc1cc(CNCc2cccs2)ccc1OCC(N)=O | 3.65%
O=C(CN1Cc2ccccc2C1=O)N1CCN(c2ccccn2)CC1 | -0.501%
COC(=O)c1c(-c2ccc(F)cc2)csc1N | 9.68%
CSc1ccc(/C=c2\sc3nc4ccccc4n3c2=O)cc1 | -3.14%
CCOC(=O)C1=C(C)NC(=O)CC1c1ccc(Cl)cc1Cl (stereo not drawn) | 4.52%
CC(C)(C)c1ccc(OCCCN2CCCC2)cc1 | -8.01%
Cc1nnc(SCc2cccc(F)c2)c2cc3sccc3n12 | 3.08%
Cc1cc(-c2ccc(C)c(S(=O)(=O)Nc3ncccc3C)c2)on1 | -9.1%
CC(=O)C1=C(O)C(=O)N(CCc2c[nH]c3ccccc23)C1c1ccc(C(C)C)cc1 (stereo not drawn) | 6.15%
CCN(CC)CCNC(=O)CCc1c(C)nc2c(c1C)c(=O)n(C)c(=O)n2C | 3.75%
CCOC(=O)N1CCC(NC(=O)CNS(=O)(=O)c2ccc(Br)s2)CC1 | -4.07%
COc1ccc(S(=O)(=O)N(CC(=O)NC(C)c2ccccc2)C2CCCCC2)cc1OC (stereo not drawn) | -3.74%
O=C(Cn1c(=O)n(CCc2ccccc2)c(=O)c2sc3ccccc3c21)NC1CCCCC1 | -8.42%
CC(=O)c1cccc(NC(=O)C(Cc2ccc([N+](=O)[O-])cc2)N2C(=O)c3ccccc3C2=O)c1 (stereo not drawn) | 1.44%
CC1C=CCC2C(=O)N(c3ccc(C(=O)O)cc3)C(=O)C12 (stereo not drawn) | 1.67%
O=C1c2cccnc2C(=O)N1Cc1ccc(S(=O)(=O)Nc2c3c(nc4ccccc24)CCCC3)cc1 | 0.275%
CC1=NN2C(=N)/C(=C\c3ccc(Sc4cccc5ccccc45)o3)C(=O)N=C2S1 | -1.28%
Cc1cccc(NC(=O)c2cc3ccccc3nc2C)c1 | -1.61%
CCc1ccccc1-n1c(C)cc(/C=C2\NC(=O)NC2=O)c1C | -3.92%
CCn1c(CCCNC(=O)COc2ccccc2)nc2ccccc21 | 4.14%
